Results taken from the supplement of paper PMC7826260.
Some of the results follow. Cleavage of a single-stranded DNA pool by Rep nickase domains was read by sequencing for 1 h at 37 °C with 3 µM enzyme; only the middle of the 90-letter strands is printed. Uncut reads are compared with the no-enzyme pool on a log2 scale; uncut sequences lie near 0, cut ones below; no hit call is given. Because reads are shares of a total, they shift together, so uncut sequences can rise above 0 when many others are cut.

Tests used:
Assay in all cases: uncleaved DNA left, log2 of reads against the no-enzyme library (log2 ratio); higher = less cleavage (more negative = more Rep cleavage of the k-mer); sequences stand for … in CTCGTCCG…ACCGGAGA
[1] = system: T1, Rep nickase domain of Muscovy duck circovirus
T1 sequence (residues 1-111, tag not shown): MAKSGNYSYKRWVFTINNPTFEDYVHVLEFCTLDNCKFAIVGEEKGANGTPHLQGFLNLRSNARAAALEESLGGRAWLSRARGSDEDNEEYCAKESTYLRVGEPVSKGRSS
Description: (§1)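 A pool of 90-nt single-stranded DNAs with seven random bases just before the constant AC of the nick site (name = the seven bases) was cut by 3 µM recombinant His6-SUMO-tagged Rep nickase domain (300 nM DNA, 50 mM HEPES pH 8.0, 50 mM NaCl, 1 mM MnCl2, 1 h, 37 °C, three replicates). Uncut DNA was amplified and sequenced.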

[2] = system: T2, Rep nickase domain of banana bunchy top virus
T2 sequence (residues 1-94, tag not shown): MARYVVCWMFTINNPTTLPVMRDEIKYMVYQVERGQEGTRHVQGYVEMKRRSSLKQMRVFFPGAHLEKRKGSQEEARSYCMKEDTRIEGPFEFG
Description: as §1

[3] = system: T3, Rep nickase domain of cabbage leaf curl virus
T3 sequence (residues 1-116, tag not shown): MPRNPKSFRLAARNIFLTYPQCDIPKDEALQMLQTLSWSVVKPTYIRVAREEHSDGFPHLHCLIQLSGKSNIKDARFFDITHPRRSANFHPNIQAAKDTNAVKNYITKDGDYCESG
Description: as §1

[4] = system: T4, Rep nickase domain of chickpea chlorotic dwarf virus
T4 sequence (residues 1-124, tag not shown): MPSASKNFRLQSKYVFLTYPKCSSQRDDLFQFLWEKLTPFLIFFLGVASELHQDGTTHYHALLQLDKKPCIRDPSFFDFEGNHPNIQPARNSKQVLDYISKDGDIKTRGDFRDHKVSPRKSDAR
Description: as §1

[5] = system: T5, Rep nickase domain of faba bean necrotic yellows virus
T5 sequence (residues 1-98, tag not shown): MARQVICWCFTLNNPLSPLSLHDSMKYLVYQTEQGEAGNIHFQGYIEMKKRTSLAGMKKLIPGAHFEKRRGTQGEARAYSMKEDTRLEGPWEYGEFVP
Description: as §1

[6] = system: T6, Rep nickase domain of maize striate mosaic virus
T6 sequence (residues 1-117, tag not shown): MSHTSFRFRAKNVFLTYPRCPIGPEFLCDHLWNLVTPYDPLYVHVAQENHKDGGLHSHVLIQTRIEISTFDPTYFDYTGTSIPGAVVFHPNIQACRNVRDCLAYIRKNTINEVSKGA
Description: as §1

[7] = system: T7, Rep nickase domain of porcine circovirus 2
T7 sequence (residues 2-116, tag not shown): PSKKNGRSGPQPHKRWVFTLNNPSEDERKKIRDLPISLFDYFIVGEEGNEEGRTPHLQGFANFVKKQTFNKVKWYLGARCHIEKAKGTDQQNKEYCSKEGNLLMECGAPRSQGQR
Description: as §1

[8] = system: T8, Rep nickase domain of tomato golden mosaic virus
T8 sequence (residues 1-124, tag not shown): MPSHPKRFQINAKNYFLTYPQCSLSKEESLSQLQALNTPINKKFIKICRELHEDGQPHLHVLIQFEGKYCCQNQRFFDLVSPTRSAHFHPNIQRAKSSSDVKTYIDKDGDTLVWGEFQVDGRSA
Description: as §1

[9] = system: T9, Rep nickase domain of tomato yellow leaf curl virus
T9 sequence (residues 1-136, tag not shown): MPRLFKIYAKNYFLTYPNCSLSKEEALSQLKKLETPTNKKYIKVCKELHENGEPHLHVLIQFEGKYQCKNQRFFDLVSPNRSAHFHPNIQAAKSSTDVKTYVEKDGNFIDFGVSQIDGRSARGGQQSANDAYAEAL
Description: as §1

[10] = system: T10, Rep nickase domain of wheat dwarf virus
T10 sequence (residues 1-137, tag not shown): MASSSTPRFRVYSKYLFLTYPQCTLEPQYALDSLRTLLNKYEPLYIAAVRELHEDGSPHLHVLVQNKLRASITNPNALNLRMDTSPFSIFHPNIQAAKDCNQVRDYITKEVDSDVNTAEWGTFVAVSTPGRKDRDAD
Description: as §1

Sequence | uncleaved DNA left (log2) [1] | uncleaved DNA left (log2) [2] | uncleaved DNA left (log2) [3] | uncleaved DNA left (log2) [4] | uncleaved DNA left (log2) [5] | uncleaved DNA left (log2) [6] | uncleaved DNA left (log2) [7] | uncleaved DNA left (log2) [8] | uncleaved DNA left (log2) [9] | uncleaved DNA left (log2) [10]
TATGTAG | 0.0538 | -0.0735 | -0.809 | -0.401 | 0.123 | -1.08 | 0.137 | 0.0201 | 0.104 | -0.0154
TTCAAAT | 0.0353 | 0.116 | 0.299 | -0.238 | 0.147 | -0.0547 | -0.348 | 0.0211 | 0.138 | 0.142
GCATTAT | -0.228 | -0.00469 | 0.104 | -0.0195 | 0.00705 | -0.0215 | -0.477 | 0.0998 | 0.0477 | 0.0723
CTGCTCT | -0.0386 | 0.0188 | -0.206 | -1.73 | -0.0481 | -0.588 | -0.116 | 0.00837 | -0.047 | -0.00365
ACGGTCA | -0.0279 | -0.0756 | -0.115 | -0.766 | 0.0157 | -0.333 | -0.104 | 0.0303 | -0.0204 | -0.1
GGAGCCC | 0.0045 | 0.0836 | 0.551 | 1.29 | -0.0413 | 1.71 | 0.025 | 0.0686 | 0.0467 | 0.0906
ACCGACT | 0.163 | 0.138 | 0.022 | -0.467 | 0.234 | 0.00315 | 0.148 | 0.227 | 0.248 | 0.122
CAGTAGA | -0.0106 | -0.27 | -0.305 | -0.585 | -0.0436 | -1.27 | -2.55 | -0.0875 | -0.0672 | -0.212
GGGCATT | -0.106 | -0.135 | 0.712 | 1.97 | 0.0099 | 2.23 | 0.0287 | 0.000197 | -0.135 | 0.182
AGCGGCC | 0.0353 | 0.0316 | 0.102 | 0.631 | 0.0149 | 1.18 | 0.039 | 0.133 | -0.00372 | 0.0371
CCACACT | 0.11 | 0.0494 | -0.862 | -2.83 | 0.0225 | -0.836 | -0.3 | -0.0862 | 0.0603 | -0.457
CCTTGCC | 0.0115 | -0.0904 | -0.66 | -0.862 | 0.0648 | -0.997 | -0.0766 | -0.079 | -0.0439 | -0.0552
ACCAAAA | -0.0168 | 0.0645 | -0.158 | 0.0452 | -0.00858 | -0.848 | 0.103 | 0.0399 | -0.131 | 0.0251
TACAATC | -0.0401 | 0.0208 | -0.149 | -0.522 | 0.0587 | -0.362 | 0.0132 | -0.0457 | 0.0873 | 0.0326
GGATGCG | -0.0132 | -0.0665 | -0.283 | 0.967 | 0.115 | 0.468 | 0.0921 | -0.0553 | -0.139 | -0.145
TCACAAT | 0.158 | 0.0262 | -0.0647 | -1.53 | 0.165 | -0.414 | -0.0971 | 0.0943 | 0.0825 | -0.0759
GTATGTC | -0.0701 | 0.0512 | 0.295 | 0.722 | 0.0411 | 1.28 | 0.0855 | -0.0299 | 0.0136 | 0.091
TCCTCTC | -0.0938 | -0.148 | 0.133 | -0.243 | -0.0633 | -0.429 | -0.119 | -0.0983 | -0.225 | -0.134
CCATCTG | 0.0296 | -0.0385 | -0.107 | 0.121 | 0.0573 | -0.25 | 0.104 | -0.0138 | -0.126 | 0.0101
TCTCCTG | -0.0969 | -0.0794 | -0.156 | -0.209 | -0.0839 | -0.185 | 0.0203 | 0.0371 | 0.0354 | -0.0771
GCACCCA | -0.0939 | -0.00189 | -0.0379 | -0.328 | -0.0221 | 0.149 | -0.259 | 0.0501 | -0.00609 | 0.0769
TGCAATT | -2.4e-05 | 0.0815 | -0.00606 | -1.69 | 0.129 | -0.417 | -0.476 | 0.0273 | 0.0706 | -0.0342
GTCTCCA | -0.037 | -0.00545 | 0.22 | 0.676 | -0.00772 | 1.69 | 0.123 | 0.0665 | 0.0172 | 0.0089
TTCTATG | -0.133 | -0.141 | -0.489 | -0.608 | 0.0389 | -1.1 | -0.0599 | -0.0119 | -0.0418 | -0.0643
CACCTCC | -0.097 | -0.0357 | -0.000863 | -0.223 | -0.148 | 0.524 | -0.102 | -0.227 | -0.0156 | -0.0092
TTTCGAG | -0.0193 | 0.121 | 0.53 | 0.638 | 0.106 | 0.396 | 0.209 | 0.0721 | 0.134 | 0.183
AGGAGGT | 0.0744 | 0.1 | 0.386 | 1.51 | 0.101 | 1.76 | 0.25 | 0.131 | -0.0106 | 0.119
GACTCGT | -0.00912 | -0.0292 | 0.18 | -0.0954 | 0.0668 | 0.0322 | -2.71 | 0.0513 | 0.0143 | 0.0684
TAGGACG | -0.106 | -0.0267 | -0.0784 | 0.263 | -0.113 | -0.867 | 0.0719 | -0.0755 | 0.00786 | 0.0789
CACGATG | 0.00748 | -0.118 | -0.0568 | 0.315 | 0.00949 | 0.209 | 0.027 | 0.0214 | -0.0062 | -0.0191
